Among all 310,000 compounds or so, about 14,000 (4.5%) showed an effect of 50% or more. Effects have a minus sign here. The list shows a part of the results.
target: human ether-à-go-go-related gene (hERG) potassium channel (human, UniProt Q12809); experiment: primary screen, population patch clamp on CHO cells stably expressing hERG
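Also: peak tail current of the secondary pulse compared with the same well before compound.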

Sequence of human ether-à-go-go-related gene (hERG) potassium channel (Q12809 whole entry, looked up): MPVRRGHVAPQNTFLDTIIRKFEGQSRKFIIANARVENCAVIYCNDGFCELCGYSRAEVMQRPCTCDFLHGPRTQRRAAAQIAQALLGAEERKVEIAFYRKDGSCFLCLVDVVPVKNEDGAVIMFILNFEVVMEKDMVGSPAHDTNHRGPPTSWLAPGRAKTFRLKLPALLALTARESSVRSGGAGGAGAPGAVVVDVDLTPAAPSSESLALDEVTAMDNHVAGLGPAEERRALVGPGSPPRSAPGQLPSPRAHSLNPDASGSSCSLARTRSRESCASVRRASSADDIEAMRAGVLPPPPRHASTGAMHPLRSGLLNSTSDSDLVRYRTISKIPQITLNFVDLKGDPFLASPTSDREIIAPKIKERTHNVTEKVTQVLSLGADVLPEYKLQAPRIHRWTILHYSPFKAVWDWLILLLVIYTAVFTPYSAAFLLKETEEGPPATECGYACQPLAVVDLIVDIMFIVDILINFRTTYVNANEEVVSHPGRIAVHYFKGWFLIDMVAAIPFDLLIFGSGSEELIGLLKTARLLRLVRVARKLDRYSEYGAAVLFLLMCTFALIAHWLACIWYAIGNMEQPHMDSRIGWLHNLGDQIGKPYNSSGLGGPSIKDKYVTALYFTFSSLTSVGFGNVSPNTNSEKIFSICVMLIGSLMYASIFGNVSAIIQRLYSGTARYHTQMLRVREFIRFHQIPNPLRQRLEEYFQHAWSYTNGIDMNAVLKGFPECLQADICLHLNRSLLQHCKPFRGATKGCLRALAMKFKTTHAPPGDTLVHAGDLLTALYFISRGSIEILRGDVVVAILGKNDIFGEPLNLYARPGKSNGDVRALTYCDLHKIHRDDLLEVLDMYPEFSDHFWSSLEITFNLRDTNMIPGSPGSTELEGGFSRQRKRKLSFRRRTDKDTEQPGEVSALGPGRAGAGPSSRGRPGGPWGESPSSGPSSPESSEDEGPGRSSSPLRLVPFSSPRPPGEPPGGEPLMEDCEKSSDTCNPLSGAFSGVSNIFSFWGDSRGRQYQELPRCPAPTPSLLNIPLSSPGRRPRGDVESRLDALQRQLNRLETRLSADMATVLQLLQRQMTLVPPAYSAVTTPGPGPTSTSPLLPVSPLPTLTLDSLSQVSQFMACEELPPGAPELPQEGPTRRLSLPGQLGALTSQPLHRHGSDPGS

Structure (SMILES)	hERG current change (%, negative = inhibition) at 10uM [%]
CC(/C=C/c1ccccc1F)=N\NC(=O)c1cccc(F)c1	8.89
CC(C)(C)c1ccc(OCCC(=O)OCC(=O)Nc2cccnc2Cl)cc1	-2.33
O=C(Nc1ccccc1N1CCCC1)c1cc(S(=O)(=O)N2CCOCC2)ccc1Cl	-34.5
CN1CCN(C(=O)c2ccc(N3CCCC3=O)cc2)CC1	16.2
Cn1c2ccccc2c(=O)c2cc(C#Cc3cccc(N)c3)ccc21	12.3
CCn1ccnc1CN1CCC(n2nccc2NC(=O)c2ccccc2OC)CC1	-69.9
COc1ccc2ccccc2c1CN1CCN(C(=O)c2ccco2)CC1.O=C(O)C(=O)O	-48.7
CCN1CCCC1CNC(=O)c1ccc(CS(=O)(=O)c2ccccc2C)o1 (stereo not drawn)	-13.7
CCOC(=O)Cn1c(=O)oc2cc(S(=O)(=O)N(C)c3cccc(C)c3)ccc21	-30.3
COc1cnn(-c2ccc(F)cc2)c(=O)c1Br	20.4
CN(NS(=O)(=O)c1ccccc1)c1nc2ccccc2nc1C(F)(F)F	6.35
O=C(NCCc1ccccc1F)C(=O)Nc1nccs1	4.15
CC(C)n1nc(C(=O)NNC(=O)c2ccncc2)c2ccccc2c1=O	3.56
CCn1c(C)c2c([n+]1CC)CC(C)(C)CC2=O.[I-]	8.58
CC(=O)Nc1ccc(NS(=O)(=O)c2cc(-c3cnc(C4CC4)o3)ccc2C)cc1	20.3
O=C1CN(C(=O)COc2ccc(Cl)cc2Cl)c2ccccc2N1	14.2
CN(C/N=C(\N)N[N+](=O)[O-])S(=O)(=O)c1ccccc1	19.4
Cc1ccc(OCC(=O)Nc2ccc3c(c2)nc2n3CCOC2)cc1	-35.9
CCn1cc(/C=C(\NC(=O)c2cc(OC)c(OC)c(OC)c2)C(=O)NCCN2CCOCC2)c2ccccc21	10.8
COc1ccc(NC(=S)NCCc2ccccc2OC)c(OC)c1	-31.6
O=C(CN(Cc1ccccc1)C(=O)c1cccc([N+](=O)[O-])c1)Nc1c(Cl)cc(Cl)cc1Cl	-7.95
COc1ccc(C(=O)CNC2=NCCC2)cc1.Cl	-3.72

Structure (SMILES)	hERG current change (%, negative = inhibition) at 10uM [%]
CC(C)C(C(=O)OCC(=O)c1ccccc1)N1C(=O)C2C3C=CC(C3)C2C1=O (stereo not drawn)	0.444
CC(=O)Nc1cc(C(=O)N2CCC3(CC2)OCCO3)ccc1S(=O)(=O)c1ccc(C)cc1	12.3
Cc1ccc(Sc2ncccc2C(=O)NCc2cc([N+](=O)[O-])ccc2O)c(C)c1	17.2
CCOc1cc(/C=N/NC(=O)c2cccnc2)ccc1OCc1ccc(C(=O)OC)o1	10.9
O=C(NCC1CCCO1)c1cc2nc(-c3ccco3)cc(C(F)(F)Cl)n2n1 (stereo not drawn)	7.91
CCn1nnnc1SCC(=O)NNC(=O)C1CCCCC1	-12.7
COc1ccc(OC)c(Cc2nnc(CCC(=O)N3CCN(C4CCCC4)CC3)o2)c1	-4.69
CC1=C(C(=O)Nc2ccc(C)cc2)C(c2ccc(N(C)C)cc2)NC(=O)N1 (stereo not drawn)	17.5
Cc1ccc(S(=O)(=O)NN2C(=O)/C(=C/c3cccc(F)c3)SC2=S)cc1	3.76
CN(CC(=O)NC(=O)NCc1ccccc1)CC(=O)Nc1ccc(Cl)c(C(F)(F)F)c1	-1.53
O=S(=O)(NCCCCNS(=O)(=O)c1c(F)cccc1F)c1ccc2c(c1)OCCO2	-5.62
CC(C)(C)n1cccc1/C=C1\C(=O)NC(=O)N(c2ccccc2)C1=O	-13.9
COCCNS(=O)(=O)c1ccc(C2CNC(=O)C2)cc1 (stereo not drawn)	4.09
NC(=O)SCC(=O)Nc1ccc(Cl)cc1	15.3
CCn1cc(Br)c(C(=O)NC(=S)Nc2ccc(C(=O)OC)cc2)n1	-4.48
CCc1nc2oc(C(=O)c3ccccc3)c(N)c2c2c1COC(C)(C)C2	12.3
O=C(NCCCSc1ccccc1)c1ccc(=O)[nH]c1	21.6
Cc1ccc(OC(=O)N2CCOCC2)cc1	18.3
O=C(COc1ccc(F)cc1Cl)Nc1cccc(S(=O)(=O)N2CCCC2)c1	5.73
O=C(Nc1ccnn1C1CCN(C2CCOCC2)CC1)c1cccc(F)c1	-1.9
COc1cccc2c1CCC(NC(C)=O)C2=O (stereo not drawn)	32.9
CC(=O)Nc1ccc(NC(=O)c2ccc(C3SCC(=O)N3CCc3ccccc3)cc2)cc1 (stereo not drawn)	3.22

Structure (SMILES)	hERG current change (%, negative = inhibition) at 10uM [%]
c1ccc(OCCCn2nnc(-c3ccncc3)n2)cc1	-10.7
CCOc1cc(/C=C/c2cc(C(=O)O)c3ccccc3n2)ccc1OC	-0.37
CNc1ccccc1C(=O)OCC(=O)Nc1ccc2c(c1)OCO2	6.77
Cc1ccc(C(=O)N2CCN(c3ccc(N4CCOCC4)nn3)CC2)cc1C	-21.2
O=C(c1ccc(F)cc1)N1CCC(C(=O)N2CCN(S(=O)(=O)c3cccc([N+](=O)[O-])c3)CC2)CC1	-34.5
O=C(Cn1c(COc2ccccc2)nc2ccccc21)Nc1cc(Cl)c(Cl)cc1Cl	1.36
C[C@]12CC[C@@H]3c4ccc(O)cc4CC[C@H]3[C@@H]1CCC2=O	-0.0831
O=C(NNC(=O)c1ccc(O)c(Cl)c1)c1cccc(S(=O)(=O)N2CCOCC2)c1	16.3
COCCCNC(=O)CN(c1cc(C(F)(F)F)ccc1Cl)S(C)(=O)=O	-11.7
COc1ccc(NC(=O)c2ccc(S(=O)(=O)NCc3cccnc3)cc2)cc1	-17.8
CCCN1CCC(=O)N([C@H](CO)c2ccccc2)CC1	9.36
CN1C2C=C(N(C(=O)c3ccc(Cl)cc3)c3ccccc3)CC1CC2.Cl (stereo not drawn)	-74
Cc1nc(CS(=O)(=O)c2ccccn2)sc1C(=O)NNC(=O)c1ccccc1	10.4
COCCNC(=O)CCC1CCN(Cc2cccc(Oc3ccccc3)c2)CC1	-55.3
COc1cc(/C=C2/C(=N)N3C=CSC3=NC2=O)ccc1OCCCOc1ccccc1C	6.31
COc1ccc(/C=C/C(=O)c2ccc(NS(=O)(=O)c3ccc(C)cc3)cc2)cc1O	1.89
CCCCNC(=NCc1cccc(C(F)(F)F)c1)Nc1ccccc1	-16.8
COc1cc2c(cc1NC(=O)Nc1cccc(C)c1)oc1ccccc12	6.15
CCC(CC)C(=O)OCC(=O)Nc1cccc(S(=O)(=O)N(C)c2ccccc2)c1	14.3
OCCN(Cc1ccccc1)CC1CC2C=CC1C2 (stereo not drawn)	-14.6
O=C(Cn1cncn1)NCc1ccc(Cl)cc1	7.07
Cc1ccc(C(C)C)cc1S(=O)(=O)NC1CC(C)(C)NC(C)(C)C1	-3.71

Structure (SMILES)	hERG current change (%, negative = inhibition) at 10uM [%]
COc1ccc(/C=N/NC(=O)c2cccs2)c2ccccc12	9.42
Cc1ccc(N2CCN(C(=O)N3CCOCC3)CC2)c(C)c1	6.02
CN1C(=S)N(c2cccnc2)C(=O)/C1=C\c1ccc(C(C)(C)C)cc1	5.97
COC(=O)N1CCc2c(sc(NC(=O)C3COc4ccccc4O3)c2C(N)=O)C1 (stereo not drawn)	2.44
O=C1OCc2ccc(NC(=O)C3CCCCC3)cc21	2.51
Cc1ccccc1-c1nnc(SCCC(=O)N2CCOCC2)o1	-2.53
Cc1ccc2cc(C#N)c(N3CCCN(S(=O)(=O)c4ccccc4)CC3)nc2c1C	0.802
COc1ccc(N2C(=O)C(Cl)=C(N3CCCC3)C2=O)cc1	13.9
Cc1ccc(F)cc1NC(=O)CN1CCN(c2ccccn2)CC1	-35.2
Cc1c(NC(=O)Nc2cccc(Cl)c2)c(=O)n(-c2ccccc2)n1C	11.4
COc1ccccc1N(Cc1ccccc1)S(=O)(=O)c1cccc(C(=O)NCC2CCCO2)c1 (stereo not drawn)	-46.3
Cc1ccc(C)c(Cn2c(=O)n(C)c(=O)c3sccc32)c1	7.39
O=C(O)/C=C\C(=O)O.c1cc(CN2CCCCC2)cc(OCCCNc2nc3ccccc3s2)c1	-46.6
CC(=O)N1CCN(C(=O)Cn2c(=O)oc3ccccc32)CC1	5
O=C(CN1CCN(S(=O)(=O)c2ccc(F)cc2)CC1)NCC1(N2CCOCC2)CCCCC1	-18.6
Cc1nnc(SCC(=O)NCCN2C(=O)CSC2=O)s1	-6.67
CCOC(=O)C1=C(N)Oc2ccc3ccccc3c2C1c1cccc(O)c1 (stereo not drawn)	14.3
O=C(Nc1ccccc1)Nc1cccc2cccnc12	1.04
NNC(=O)COc1cccc2cccnc12	12.4
O=C(c1ccc2c(c1)C(=O)N(c1ccc(Cl)cc1)C2=O)N1CCN(c2ccccn2)CC1	6.39
CN(C)c1ccc(/C=N/NC(=O)c2ccc(-n3cnnn3)cc2)cc1	10.8
